Measured values reported in the supplement of paper PMC3334620.
In all, about 33,000 sequences were measured (“E-score (-0.5 to 0.5)”: median about -0.012, highest 2% from about 0.27 on). This is one part of the list.

target: T1, Vhr1 (UniProt P40522); experiment: PBM E-score (8-mer binding enrichment) (E-score (-0.5 to 0.5)); higher = stronger / more preferred TF binding; most listed sequences are background and not binding sites; conditions: protein concentration: 200 nM; construct: GST-full length
T1 sequence: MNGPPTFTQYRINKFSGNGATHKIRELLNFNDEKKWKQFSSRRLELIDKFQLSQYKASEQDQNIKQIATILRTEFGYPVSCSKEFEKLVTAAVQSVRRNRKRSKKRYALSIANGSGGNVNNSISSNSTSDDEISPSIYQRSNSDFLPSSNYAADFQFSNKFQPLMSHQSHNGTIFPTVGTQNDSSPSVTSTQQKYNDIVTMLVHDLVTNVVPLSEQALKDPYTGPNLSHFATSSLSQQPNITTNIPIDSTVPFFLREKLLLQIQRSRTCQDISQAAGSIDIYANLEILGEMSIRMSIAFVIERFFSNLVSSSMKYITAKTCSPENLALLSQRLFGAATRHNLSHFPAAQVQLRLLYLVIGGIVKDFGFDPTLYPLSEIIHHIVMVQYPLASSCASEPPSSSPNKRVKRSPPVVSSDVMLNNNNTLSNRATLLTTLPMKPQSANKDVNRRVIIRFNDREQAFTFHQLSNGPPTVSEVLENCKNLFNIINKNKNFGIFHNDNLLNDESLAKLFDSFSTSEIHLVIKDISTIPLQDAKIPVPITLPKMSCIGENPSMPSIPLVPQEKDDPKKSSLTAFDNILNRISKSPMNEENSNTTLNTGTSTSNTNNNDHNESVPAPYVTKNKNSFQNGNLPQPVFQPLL
Method in brief: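 For each ungapped eight-base word taken together with its reverse complement, the Universal PBM Analysis Suite assigned an E-score. Binding data came from GST-tagged yeast transcription factors, applied at about 100-200 nM, on universal all-10-mer Agilent arrays made double-stranded by primer extension. Fluorescent anti-GST marked bound protein, and scans were normalised with masliner.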

| Sequence | PBM E-score |
| --- | --- |
| ACCCCTAC | -0.0954 |
| AATAGGTG | -0.00182 |
| CTTGGACA | -0.227 |
| AGCCCTAT | -0.0735 |
| CTTACACC | 0.0957 |
| AAAAACAT | -0.0631 |
| GACCAAAC | -0.0254 |
| TAGTCCGA | -0.0607 |
| GCTCAGCA | 0.0944 |
| AAGTATTA | -0.0418 |
| ACACCCGC | 0.0824 |
| CCTGAGGA | -0.0328 |
| CAAGTGGA | 0.13 |
| AAACTTTA | -0.0711 |
| AGCCGGAT | 0.0864 |
| AATCTGGT | 0.105 |
| CACAACAA | -0.0806 |
| CGTACTAC | -0.0502 |
| GAAACTTA | -0.0802 |
| CGTAGAAA | -0.204 |
| AGTTTTTA | -0.234 |
| AGGAAGCA | -0.0611 |
| AGATTCAT | 0.0481 |
| CAGTCGCC | 0.147 |

| Sequence | PBM E-score |
| --- | --- |
| TGAACCCA | 0.15 |
| ATATCGAC | 0.204 |
| CGTATTCA | 0.0876 |
| CGATTACG | -0.00851 |
| ATACCAGC | 0.0165 |
| AGGTTGAT | 0.0467 |
| ATTTGAAG | -0.294 |
| GACCTACC | 0.0703 |
| CCGACTCA | 0.417 |
| CAAGAGTA | 0.167 |
| GAGACCAC | 0.153 |
| CGATCGGA | -0.165 |
| AGTTTGTA | -0.00087 |
| AATCGAAA | -0.152 |
| GCAACGAC | -0.0341 |
| CTCATGTA | 0.183 |
| AAAGCGGG | -0.196 |
| CGCGACTC | 0.449 |
| TATAGAGA | -0.326 |
| CGTGACAC | 0.204 |
| AGCAGATG | -0.0657 |
| CCATTTCA | -0.201 |
| GCCCCTTA | -0.0306 |
| GCCCTAAA | -0.37 |

| Sequence | PBM E-score |
| --- | --- |
| ACTCTTCG | -0.0779 |
| ACCAAACG | 0.142 |
| ACTCCAGT | 0.121 |
| GAGTTTAC | -0.096 |
| CTACTGTC | 0.135 |
| ACTAACAT | 0.148 |
| AGTACGAG | 0.146 |
| AACGGCGT | -0.058 |
| CGACTTAG | -0.0762 |
| GCTAACTA | 0.0567 |
| GAGTTCGA | 0.0304 |
| AATCGGGG | -0.0108 |
| AATATAGC | 0.105 |
| AGAAGAAA | -0.201 |
| GCTAGCAA | -0.173 |
| CGCGGGGC | 0.00689 |
| CAGCCGCC | 0.149 |
| ACTAGAGC | -0.134 |
| ACATAGGA | -0.0621 |
| GCTCTCGA | -0.0152 |
| GAGGTCCC | -0.0898 |
| AATTATCG | 0.0253 |
| TGCGCACA | 0.0633 |
| TACTAGTA | 0.0954 |

| Sequence | PBM E-score |
| --- | --- |
| ATATTACC | 0.213 |
| AGCCTAGC | -0.0849 |
| AACCCTCT | -0.256 |
| AGACCCGA | 0.162 |
| CCGCGTCA | -0.07 |
| AATCGAAG | 0.156 |
| CAATCCTG | 0.122 |
| CACTCCGG | 0.27 |
| ATGGCTGA | 0.108 |
| CGCCGGAC | -0.0925 |
| CCGATGCC | -0.115 |
| ATTTGCGG | -0.0102 |
| TAGCGAGA | -0.0364 |
| AACCCGAA | -0.016 |
| TGCTACCA | -0.0491 |
| CTACACTC | 0.149 |
| ACCTCTTG | -0.0906 |
| TAGCACGA | -0.101 |
| CCGGGTAC | 0.089 |
| CTCACCCA | 0.342 |
| ATTAGACC | -0.0612 |
| CCGCAAAA | -0.114 |
| CAACGACC | 0.0847 |
| GTGGGAAA | 0.00896 |

| Sequence | PBM E-score |
| --- | --- |
| AGGACCCC | -0.175 |
| CGGGCCCA | -0.136 |
| CCGATTCA | 0.00961 |
| ACAACTTC | -0.0115 |
| CGGCCTCA | 0.024 |
| GAATTAGA | -0.172 |
| ACACTTTG | -0.0809 |
| GCTGCAAA | -0.127 |
| TTATGAAA | 0.0627 |
| AGCTCGTC | -0.119 |
| GACTATCC | 0.242 |
| ATTAGTAG | -0.0213 |
| GCCACGGA | 0.00457 |
| AACAACTT | -0.0839 |
| CTCCCATC | 0.154 |
| CAGAGACA | -0.151 |
| ACACCTCT | 0.128 |
| GACTGGGC | 0.0779 |
| GAATACTC | 0.0679 |
| ACGTGGGG | -0.242 |
| ATACGAGA | -0.189 |
| CGATCTGC | 0.0306 |
| GCGAGGTA | -0.113 |
| GTCGATGA | 0.119 |

| Sequence | PBM E-score |
| --- | --- |
| CCGAGGCC | 0.0312 |
| CAACTGTC | -0.0789 |
| ATACTTCC | -0.079 |
| CCTCTAGA | -0.178 |
| ATACTTGC | 0.102 |
| GCGAGTAC | 0.174 |
| AGTCAGCA | 0.346 |
| ACAGGGGA | -0.0503 |
| CCTTGTCC | -0.053 |
| TACGTGGA | -0.106 |
| CGTTGAAG | -0.182 |
| CTCTGCTC | -0.00466 |
| AGCTTAAT | 0.0391 |
| GATCTGTA | 0.0606 |
| GTATCTGA | 0.113 |
| AGGTCATG | 0.136 |
| CCGTGACA | 0.192 |
| AGGCTTTG | -0.177 |
| CGGGTGGC | 0.064 |
| CTCCCGGC | 0.119 |
| AAACGTCT | -0.147 |
| CGTTGTCA | -0.00706 |
| AAGTGGAT | 0.0246 |
| AGGTCAGA | -0.145 |

| Sequence | PBM E-score |
| --- | --- |
| ATGCTCGG | -0.0409 |
| TTAGTCAA | 0.168 |
| CCTGGTGC | 0.0619 |
| GCGGAGGA | -0.181 |
| AAACGGAA | -0.11 |
| ACGCGTGG | 0.199 |
| CCAGACGC | -0.029 |
| CAACTAAC | 0.202 |
| CCTATGGA | -0.0875 |
| ATGTGTAC | 0.263 |
| ATGAGCTG | 0.0111 |
| AGCACTAC | 0.0499 |
| ACCCTGCG | 0.06 |
| AAGTGCCT | -0.273 |
| CAACCGGC | 0.0597 |
| ATTAGCTA | 0.0108 |
| ATTCGCCC | 0.0149 |
| ATAGCGCC | 0.0931 |
| CAAGCAGA | -0.138 |
| AACCTAAC | -0.149 |
| AAGGTGGG | -0.012 |
| TGCCCAAA | -0.197 |
| CCAGATAA | 0.11 |
| GGCATTTA | -0.164 |

| Sequence | PBM E-score |
| --- | --- |
| ATACCCTG | 0.0199 |
| AGAATAAG | -0.138 |
| GCCATCTA | -0.0922 |
| CCTGTAGA | -0.075 |
| AGATCAAA | -0.105 |
| CTAAGCCA | -0.0787 |
| CTGAGTAA | 0.153 |
| ATAATAAC | -0.00725 |
| ACTCCACG | -0.104 |
| AAATGAAG | 0.0729 |
| AACGCGCA | -0.0323 |
| ACTGCTGA | 0.131 |
| ACAAACCA | 0.0102 |
| AGTTGGAC | -0.121 |
| CTCCTTGA | -0.0344 |
| ACCAAGCT | 0.105 |
| CATGTTGG | -0.044 |
| GGCAATCA | 0.0834 |
| CACCAGGG | 0.0715 |
| ACGAGTAT | 0.126 |
| AGTCCCAG | -0.0249 |
| AAAAAATT | -0.248 |
| CCGTTAAC | -0.21 |
| GGGCCGCA | -0.0185 |
